In paper PMC4336329 (PLoS ONE, 2015):
The campaign covered roughly 310,000 compounds. About 2,200 (0.71%) showed an effect of 50% or more. Effects have a minus sign here. This is one part of the list.

The molecules below were run against human ether-à-go-go-related gene (hERG) potassium channel (human, UniProt Q12809) (assay: primary screen, population patch clamp on CHO cells stably expressing hERG).
Sequence of human ether-à-go-go-related gene (hERG) potassium channel (Q12809 whole entry, looked up): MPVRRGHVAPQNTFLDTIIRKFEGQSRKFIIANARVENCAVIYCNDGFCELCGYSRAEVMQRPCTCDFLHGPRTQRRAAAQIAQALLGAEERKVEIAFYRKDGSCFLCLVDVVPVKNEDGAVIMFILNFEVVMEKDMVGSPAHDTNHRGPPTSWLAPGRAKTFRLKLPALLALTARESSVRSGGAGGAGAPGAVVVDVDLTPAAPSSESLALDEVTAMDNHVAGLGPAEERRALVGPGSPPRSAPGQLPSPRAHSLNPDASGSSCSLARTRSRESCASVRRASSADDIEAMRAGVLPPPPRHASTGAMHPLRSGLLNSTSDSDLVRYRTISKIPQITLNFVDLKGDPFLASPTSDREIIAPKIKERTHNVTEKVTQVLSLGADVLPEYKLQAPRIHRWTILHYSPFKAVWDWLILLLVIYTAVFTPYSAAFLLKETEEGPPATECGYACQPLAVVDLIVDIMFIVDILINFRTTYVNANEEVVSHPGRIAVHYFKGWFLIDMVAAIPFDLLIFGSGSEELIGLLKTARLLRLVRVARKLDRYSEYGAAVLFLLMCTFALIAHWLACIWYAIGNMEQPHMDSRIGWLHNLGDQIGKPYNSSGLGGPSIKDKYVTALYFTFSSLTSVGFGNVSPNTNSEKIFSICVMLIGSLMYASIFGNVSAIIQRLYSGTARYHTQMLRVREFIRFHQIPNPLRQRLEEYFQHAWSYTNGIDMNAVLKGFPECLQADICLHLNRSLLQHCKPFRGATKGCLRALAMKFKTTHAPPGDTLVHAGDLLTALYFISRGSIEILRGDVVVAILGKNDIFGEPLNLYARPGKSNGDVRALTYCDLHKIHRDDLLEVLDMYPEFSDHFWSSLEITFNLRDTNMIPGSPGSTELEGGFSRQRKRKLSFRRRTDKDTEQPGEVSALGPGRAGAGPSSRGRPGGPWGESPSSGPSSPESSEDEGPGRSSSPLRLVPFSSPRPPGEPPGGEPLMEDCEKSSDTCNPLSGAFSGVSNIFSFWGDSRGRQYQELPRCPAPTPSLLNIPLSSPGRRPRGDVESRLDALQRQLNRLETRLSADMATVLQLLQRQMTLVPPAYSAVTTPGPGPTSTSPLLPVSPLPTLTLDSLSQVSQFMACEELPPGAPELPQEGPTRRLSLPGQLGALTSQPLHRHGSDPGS

| Structure (SMILES) | hERG current change (%, negative = inhibition) at 1uM [%] |
| --- | --- |
| COC(=O)c1nn(-c2ccc3c(c2)CCN3C(C)=O)cc1O | 10.1 |
| CCCC(=O)Nc1ccc(C(=O)N/N=C/c2ccc([N+](=O)[O-])o2)cc1 | 15.1 |
| Cc1ccc(-n2c(=O)c3sccc3n(CC(=O)NCc3ccco3)c2=O)cc1 | 6.71 |
| CCCCn1c(SCC(=O)NC2CC2)nc2ccccc2c1=O | 1.37 |
| CCn1c(SCC(=O)NCc2ccccc2)nnc1C(CO)NC(=O)c1ccccc1 (stereo not shown) | 11.3 |
| CCOC(=O)c1c(-c2ccc(C)o2)csc1NC(=S)NC(=O)N(C)C | 3.27 |
| CCOCCCNC(=O)COC(=O)/C=C/c1ccc(S(=O)(=O)N2CCc3ccccc32)cc1 | 21.7 |
| C#CCOCCOCCOCCNc1nc(N2CCOCC2)nc(N2CCN(C(=O)[C@H]([C@@H](C)CC)n3cc([C@@H](N)Cc4ccc(O)cc4)nn3)CC2)n1.Cl | 4.49 |
| C=CCSc1nc2c(c(=O)[nH]1)C(C(C)C)C(C#N)=C(N)O2 (stereo not shown) | 6.29 |
| COc1cc(C(=O)NCC(=O)OCCN2C(=O)c3ccccc3C2=O)cc(OC)c1OC | 2.5 |
| Cc1ccc(S(=O)(=O)CC(=O)N2CCCCCC2)cc1 | 8.52 |
| C/C(=N\Nc1cc(Cl)nc(C)n1)c1ccc(C)cc1 | 8.72 |
| O=C(CN(C(=O)CNS(=O)(=O)c1ccccc1)c1ccc2c(c1)OCCO2)NC1CCCCC1 | 10.8 |
| CCOC(=O)N1CCC(Nc2cccc(SC)c2)CC1 | 11.3 |
| CCCCNC(=O)CCCCCNS(=O)(=O)c1ccc(Br)cc1 | -26.3 |
| O=S(=O)(N/N=C/c1ccc(Cl)cc1)c1ccc(Cc2ncc(C(F)(F)F)cc2Cl)s1 | 10.1 |
| CC[n+]1ccc(/C=C2\Sc3ccccc3N2CCCS(=O)(=O)[O-])c2ccccc21 | 13.6 |
| Cc1cccnc1NC(=O)c1ccc2nc(N)sc2c1 | 12.3 |
| C=CCN1C(=O)c2ccccc2Sc2ccc(C(=O)NC(C)C)cc21 | 17.6 |
| O=C(CSc1ncnc2sccc12)Nc1ccccc1 | 37.3 |
| CCCCn1c(N)c(N(CCC(C)C)C(=O)COC(=O)c2ccccc2)c(=O)[nH]c1=O | 8.04 |
| CN(c1ccc(C(=O)N2CCN(c3ccc(F)cc3)CC2)cc1)S(C)(=O)=O | -9.3 |

| Structure (SMILES) | hERG current change (%, negative = inhibition) at 1uM [%] |
| --- | --- |
| O=C(NCc1ccccn1)C1CCCCC1 | 6.06 |
| CCOC(=O)C[C@H]1c2cc(F)ccc2S(=O)(=O)N1C1CCCC1 | 3.05 |
| CC12CN3CCN(CC(C3)C1O)C2 (stereo not shown) | 8.93 |
| CCCCn1c(=O)n(CC(=O)Nc2c(CC)cccc2CC)c(=O)c2c1nc(CO)n2CCC | 2.58 |
| CCOC(=O)c1sc(NC(=O)CSc2nnc(C(C)C)n2CC)nc1C | 9.17 |
| COc1cc(C2SCC(=O)N2CCN2CCCCC2)ccc1O.Cl (stereo not shown) | 20 |
| Cc1ccc(OCC(=O)N(Cc2ccco2)C2CCS(=O)(=O)C2)cc1 (stereo not shown) | 6.27 |
| COc1cccc(C2C(C#N)=C(N)Oc3cc(N)ccc32)c1OC (stereo not shown) | 0.209 |
| COc1ccc(C(=O)c2ccc(OC)c(Br)c2)cc1Br | 11.2 |
| O=C(NNC(=S)NC(=O)c1ccccc1)c1cccc([N+](=O)[O-])c1 | 9.19 |
| NC(=O)CSc1nnc(-c2ccco2)n1-c1ccccc1 | 9.97 |
| NC(=O)CC(NC(=O)Cc1cccc2ccccc12)c1ccc(NCCc2ccc(F)cc2)c([N+](=O)[O-])c1 (stereo not shown) | 6.61 |
| COc1ccc(Cl)cc1NC(=O)NC(C)c1ccncc1 (stereo not shown) | 8.6 |
| c1ccc2[nH]c(CCNC3CCCCC3)nc2c1 | -1 |
| C=C(C)CC(NCc1ccco1)c1ccc(OC)cc1 (stereo not shown) | 7.21 |
| O=C(c1ccccc1)c1ccccc1C(=O)N1CCOCC1 | 15.2 |
| Cc1cc(C)c(NC(=O)c2cccc3c2C(=O)N(C2CCCCC2)C3)c(C)c1 | 13.3 |
| O=C(CSc1nnc(SCc2ccccc2)s1)N/N=C/c1c(Cl)cccc1Cl | -3.86 |
| Cc1ccc2cc(CN(CC3CCCO3)S(=O)(=O)c3ccc4c(c3)OCCO4)c(=O)[nH]c2c1C (stereo not shown) | 7.49 |
| Cc1ccc(SCC(=O)Nc2ccccc2C(=O)O)cc1 | 14.4 |
| Cc1cccc2cc(CN(CC(C)C)S(=O)(=O)c3ccccc3)c(=O)[nH]c12 | 10.5 |
| CCCC(=O)N1CCN(c2ccc(NC(=O)c3ccc(OCC)c([N+](=O)[O-])c3)cc2)CC1 | 7.77 |

| Structure (SMILES) | hERG current change (%, negative = inhibition) at 1uM [%] |
| --- | --- |
| Br.C=CCN1C(c2ccc(Br)cc2)=CS/C1=C(/C#N)c1nnc(N2CCOCC2)n1-c1ccccc1 | 6.23 |
| CCN(CC)C(=O)CSc1nc2ccsc2c(=O)n1CCCC(=O)NCCc1ccc(S(N)(=O)=O)cc1 | 21 |
| Cc1ccccc1-c1nc(CSc2nc3c(c(=O)[nH]2)CCC3)c(C)o1 | 11.6 |
| O=C(Nc1cccc(C(=O)O)c1)Nc1ccccc1Cl | 17.1 |
| CCOC(=O)C1CCCN(C(=O)CSc2ccccc2)C1 (stereo not shown) | 8.01 |
| CCCNC(=O)c1n[nH]c(=O)c2ccccc12 | 14.3 |
| CC1CCN(C(=O)CN(Cc2ccc(F)cc2)S(C)(=O)=O)CC1 | 10.3 |
| C=CCn1c(SCC(=O)NC2CC2)nnc1-c1cccc(OC)c1 | 14.6 |
| O=c1c(-c2nc3ccccc3s2)cccn1Cc1ccc(Cl)c(Cl)c1 | 5.54 |
| COc1ccc(S(=O)(=O)N2CCN(Cc3ccccc3)CC2)cc1OC | 12.2 |
| O=C1c2ccccc2CCC12N=NCC2c1ccc(Br)cc1 (stereo not shown) | 3.38 |
| CCCCSc1nnc(CSc2ncccn2)n1C | 6.68 |
| COc1ccc(NC(=O)CCNS(=O)(=O)c2cccc3nsnc23)cc1OC | -1.41 |
| CCC1Oc2ccccc2N(CC(=O)NCCCN2CCN(c3ccc(OC)cc3)CC2)C1=O (stereo not shown) | -7.76 |
| Cc1ccccc1C(=O)Nc1nc2c(C)csc2c(=O)s1 | 18.3 |
| O=C(N/N=C/C1C(=O)NC(=S)N(c2ccccc2)C1=O)c1cc(Br)c(O)c(Br)c1 (stereo not shown) | 9.54 |
| Cc1cccc(NC(=S)NC(=O)c2ccco2)c1C | 0.151 |
| CC(C)NC(=O)c1sc2nc3c(c(-c4cccs4)c2c1N)CN(C)CC3 | -5.34 |
| COc1cc(CC(=O)NCc2ccccn2)cc(OC)c1OC | 3.9 |
| Cc1cccc(NC(=S)/N=C(\N)Nc2nc(C)c3ccccc3n2)c1 | 2.75 |
| COc1cccc(-n2c(C)cc(/C=C3/C(=N)N4C(=NC3=O)SN=C4S(C)(=O)=O)c2C)c1 | 10.3 |
| CN1C(=O)c2ccccc2NC(=O)[C@]12O[C@@H]2c1ccccc1 | 6.63 |

| Structure (SMILES) | hERG current change (%, negative = inhibition) at 1uM [%] |
| --- | --- |
| Cn1nnc2cc(C(=O)Nc3ccccc3F)ccc21 | 23.9 |
| COC(=O)c1[nH]c2cccc(OC)c2c1NC(=O)CN1CC2(C)CC1CC(C)(C)C2 (stereo not shown) | 7.5 |
| COc1ccccc1C(O)(C(=O)NN(C)c1ccccc1)c1ccccc1OC | 13.8 |
| CSc1ccccc1C(=O)NC1CCCN(Cc2ccccc2F)C1 (stereo not shown) | 5.27 |
| CCOc1cc(C(=S)N2CCCC2)ccc1OC | 9.92 |
| O=C(NC1CCCCCC1)c1ccc2c(=O)n3c(nc2c1)CCCCC3 | -6.08 |
| CCCN1CCc2nc(SCC(=O)Nc3ccc(C)c(Cl)c3)[nH]c(=O)c2C1 | 12.9 |
| CC(C)NC(=O)NC(=O)COC(=O)c1ccc(S(=O)(=O)Nc2ccccc2)cc1 | 4.49 |
| O=C(O)CCC(=O)N1CCc2cc(S(=O)(=O)N3CCN(c4ccc(F)cc4)CC3)ccc21 | 10.2 |
| COCCSc1ccccc1C(=O)Nc1cc(C)on1 | 3.19 |
| COc1ccccc1-c1n[nH]c(=S)n1N | 6.71 |
| COc1ccccc1C(=O)COC(=O)Cn1nc(C)c([N+](=O)[O-])c1C | 7.96 |
| COc1cccc(-c2nnc(SCCOc3ccc4c(C)cc(=O)oc4c3)o2)c1 | 10.4 |
| CCN(CC)C(=O)CSc1nc(O)cc(=O)n1-c1ccccc1OC | 4.29 |
| CCOC(=O)c1cnn(-c2ncnc3sc4c(c23)CCC4)c1N | 8.48 |
| COc1ccc(C)cc1NC(=O)CN(C)S(=O)(=O)c1ccc2c(c1)CC(C)N2C(C)=O (stereo not shown) | 2.46 |
| O=C(N/N=C/c1ccsc1)c1cc2ccccc2o1 | 11.9 |
| O=C(Nc1nc(COc2ccccc2)cs1)C1CCC1 | -2.43 |
| CCN(C(=O)COC(=O)c1cc(-c2cccs2)nc2ccccc12)C1CCS(=O)(=O)C1 (stereo not shown) | -6.23 |
| Cc1ccc(/C=N/n2c(-c3cccc(Cl)c3)n[nH]c2=S)o1 | 9.44 |
| Cc1ccc(C)c(OCC(=O)Nc2cc(C(=O)O)cc(C(=O)O)c2)c1 | 11 |
| CCOc1cccc(-c2c(C(=O)N/N=C/c3ccc(Br)cc3)nnn2-c2nonc2N)c1 | 9.58 |
